# Laboratory results reported in the supplement of paper PMC3334620.
# In all, about 33,000 sequences were measured (“E-score (-0.5 to 0.5)”: median about -0.012, highest 2% from about 0.29 on). Some of the results follow.
# Target: T1, Ybr033w (UniProt P38073)
# T1 sequence: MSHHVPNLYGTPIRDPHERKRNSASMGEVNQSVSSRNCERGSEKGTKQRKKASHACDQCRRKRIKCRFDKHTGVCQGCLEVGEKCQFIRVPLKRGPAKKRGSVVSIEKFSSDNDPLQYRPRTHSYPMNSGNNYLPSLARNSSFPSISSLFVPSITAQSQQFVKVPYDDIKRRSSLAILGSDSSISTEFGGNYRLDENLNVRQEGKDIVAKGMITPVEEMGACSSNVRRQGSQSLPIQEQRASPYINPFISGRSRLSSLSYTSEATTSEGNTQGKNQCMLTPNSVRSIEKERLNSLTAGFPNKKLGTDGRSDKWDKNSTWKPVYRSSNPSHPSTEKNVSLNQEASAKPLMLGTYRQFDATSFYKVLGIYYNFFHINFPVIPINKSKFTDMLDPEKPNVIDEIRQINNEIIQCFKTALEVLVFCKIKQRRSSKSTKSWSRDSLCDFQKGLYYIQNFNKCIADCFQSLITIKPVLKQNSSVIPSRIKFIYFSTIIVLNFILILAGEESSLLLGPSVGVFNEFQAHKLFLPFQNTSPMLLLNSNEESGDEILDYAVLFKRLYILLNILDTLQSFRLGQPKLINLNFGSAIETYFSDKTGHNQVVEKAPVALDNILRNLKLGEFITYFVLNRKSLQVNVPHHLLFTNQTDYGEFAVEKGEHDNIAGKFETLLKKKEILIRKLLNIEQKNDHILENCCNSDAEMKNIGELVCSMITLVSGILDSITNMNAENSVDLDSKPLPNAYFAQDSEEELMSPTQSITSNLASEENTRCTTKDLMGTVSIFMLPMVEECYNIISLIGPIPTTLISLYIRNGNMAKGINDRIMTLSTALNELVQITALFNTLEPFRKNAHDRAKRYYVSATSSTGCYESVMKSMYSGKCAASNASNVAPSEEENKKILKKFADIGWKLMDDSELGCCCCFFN
# Experiment: PBM E-score (8-mer binding enrichment) (E-score (-0.5 to 0.5)); higher = stronger / more preferred TF binding; most listed sequences are background and not binding sites
# Settings: protein concentration: 200 nM; construct: GST-full length
# Procedure, shortened: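 Yeast transcription factors carrying a GST tag, as full-length proteins or DNA-binding domains, were produced by PURExpress in vitro transcription/translation. About 100-200 nM protein was applied to universal all-10-mer Agilent arrays, double-stranded by primer extension on fresh or once-stripped slides. Bound protein was detected with fluorescent anti-GST, and scans were normalised with masliner. The Universal PBM Analysis Suite gave each ungapped eight-base word, pooled with its reverse complement, an E-score, a modified Wilcoxon-Mann-Whitney statistic.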
row,Sequence,PBM E-score
1,GTGCTAAA,0.187
2,TCGGAAAA,0.424
3,AGTTCGAC,0.0206
4,CGTGCACA,-0.0994
5,AATGACCA,0.0707
6,ATGCATTC,0.117
7,GCTCCGCA,-0.0503
8,AGCCAACG,-0.0547
9,CCTCGAGC,0.064
10,CAGAACAA,0.281
11,GACATATC,0.179
12,AGCGAACT,0.0184
13,CCAGGGCA,-0.266
14,CCCAGGAG,-0.2
15,AGTACTTA,0.0464
16,ATAAGGTC,0.0871
17,ACGGGATA,0.163
18,AGAGAGCA,-0.211
19,CGATACAA,0.165
20,TTAACAAA,0.188
21,ACCAATAC,0.171
22,GCGTCGCA,-0.08

row,Sequence,PBM E-score
1,CACAAATA,0.246
2,CCGCGCGG,0.104
3,CGGGTCCA,-0.323
4,AGGGTGCG,-0.216
5,ACAATACA,0.0919
6,CGAATTAC,0.135
7,GCCCGCTA,-0.234
8,TGATGACA,-0.0281
9,TCCCGCGA,-0.135
10,GGCGAACC,-0.19
11,CAAAACTC,0.166
12,CGCCGTAG,-0.0208
13,GAGATATC,-0.0199
14,ACTTATGC,0.0897
15,GGAGGTAC,-0.0524
16,ATGCCACA,0.0887
17,CCCCATTC,-0.31
18,TAATCATA,0.195
19,CGAGTTCC,0.0481
20,GAAACTGC,-0.0174
21,GCCGGGAC,-0.274
22,GACGCCGA,-0.00763

row,Sequence,PBM E-score
1,CCACCAGC,0.0071
2,AGGAGCGG,-0.359
3,AAGGCCAC,-0.271
4,ACCAGGGG,-0.311
5,AAATCGAG,0.137
6,GGTTTGTA,0.00249
7,CGGCCTTC,-0.0472
8,CCATGTAC,-0.0793
9,ACTAATAC,0.228
10,CGCTGCAC,-0.213
11,CTGTTAAA,0.109
12,GCCGTAAC,-0.16
13,CAAGCCAC,-0.364
14,AGACCCTA,-0.107
15,ATTCAGCG,0.16
16,AAATACGC,0.087
17,AAGTCTTC,-0.0941
18,GACCCACA,0.143
19,ACAATTCG,0.0965
20,AGATGTTC,0.174
21,CGGCACAA,-0.277
22,AAATCCGC,-0.0825

row,Sequence,PBM E-score
1,CCGCCCGA,-0.0976
2,ATACGAAA,0.217
3,AACAATAC,0.157
4,CAGGTATC,-0.0388
5,ATTACAAA,0.318
6,TCACCACA,0.168
7,CATTTTTC,0.264
8,AATGCGCA,0.155
9,AGTTACGG,-0.081
10,CTTCGCAC,-0.0907
11,TGGAACAA,0.434
12,GTCTCATA,-0.00322
13,CAGACAGC,-0.212
14,ACAAGAGC,-0.121
15,GTGCGTAA,-0.0581
16,AATTCCTG,0.0756
17,ATGTATTG,0.266
18,ACGCCGCA,0.0755
19,TCCCTCCA,-0.201
20,CATAGAAG,0.0446
